# Measurements as given in PubChem BioAssay (Tox21).
# Values joined by “and” are separate entries in the source; they are usually repeats but may differ in a detail not shown here. Equal entries are not always repeated. This list was built around the results that the source calls inconclusive (neither active nor inactive); the mix of calls is not that of the screen. For part of these data: A potency beside an inconclusive call is a rough fit, not a confirmed value. The source holds several records for some structures; these can differ, active in one and inactive in another. Active and inactive are the calls of the source. Unless noted, calls follow the shape of the dose curve; as a rule, active = well fitted curve in the direction sought with a large enough effect in the repeat runs; inconclusive = weak or mixed curves; inactive = no such curve, though single readings can be large; an effect the other way counts as inactive or inconclusive.
# Key:
# [1] = qHTS assay to identify small molecule agonists of the estrogen receptor beta (ER-beta) signaling pathway - cell viability counter screen (AID 1259380); also: nearly all actives have a fitted effect of over 30% in size; also: potency is read from the fitted curve at half-maximal effect
# In short: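 ER-beta-UAS-bla HEK293T cells in medium with 2% charcoal-stripped FBS, pre-incubated 6 hr, then treated 16 hr at 37C. Cytotoxicity read in the same wells by CellTiter-Glo luminescence after 30 min at room temperature.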
# [2] = qHTS assay to identify small molecule agonists or antagonists of the thyroid stimulating hormone receptor (TSHR) signaling pathway - wild type cell line counter screen (AID 1259384; calls by dose curve; also: potency is read from the fitted curve at half-maximal effect; as to cAMP activity change: % is scaled to controls: 0 for no effect and ±100 for the full control effect); conditions: HEK293 wild type, cAMP HTRF counter-screen; cAMP activity change: at 92.4 µM (top of the series), stronger effect = higher value unless noted
# In short: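 Wild-type Hek293 cells, 800/well, 18 h at 37C, then compound with Ro20-1724 for 30 min RT. cAMP by HTRF (cAMP-d2/anti-cAMP cryptate), 1 h RT, fluorescence read. 15 concentrations, triplicates.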
# [3] = molecular target: Thyrotropin receptor (Homo sapiens) (UniProt P16473); experiment: qHTS assay to identify small molecule antagonists of the thyroid stimulating hormone receptor (TSHR) signaling pathway (AID 1259385; calls by dose curve; also: nearly all actives have a fitted effect of over 20% in size; also: potency is read from the fitted curve at half-maximal effect; as to activity change, negative = inhibition: % is scaled to controls: 0 for no effect and ±100 for the full control effect); conditions: TSHR-HEK293 cAMP HTRF, TSH-stimulated antagonist mode; activity change, negative = inhibition: at 92.4 µM (top of the series) unless noted
# UniProt P16473, sequence (P16473 whole entry, looked up): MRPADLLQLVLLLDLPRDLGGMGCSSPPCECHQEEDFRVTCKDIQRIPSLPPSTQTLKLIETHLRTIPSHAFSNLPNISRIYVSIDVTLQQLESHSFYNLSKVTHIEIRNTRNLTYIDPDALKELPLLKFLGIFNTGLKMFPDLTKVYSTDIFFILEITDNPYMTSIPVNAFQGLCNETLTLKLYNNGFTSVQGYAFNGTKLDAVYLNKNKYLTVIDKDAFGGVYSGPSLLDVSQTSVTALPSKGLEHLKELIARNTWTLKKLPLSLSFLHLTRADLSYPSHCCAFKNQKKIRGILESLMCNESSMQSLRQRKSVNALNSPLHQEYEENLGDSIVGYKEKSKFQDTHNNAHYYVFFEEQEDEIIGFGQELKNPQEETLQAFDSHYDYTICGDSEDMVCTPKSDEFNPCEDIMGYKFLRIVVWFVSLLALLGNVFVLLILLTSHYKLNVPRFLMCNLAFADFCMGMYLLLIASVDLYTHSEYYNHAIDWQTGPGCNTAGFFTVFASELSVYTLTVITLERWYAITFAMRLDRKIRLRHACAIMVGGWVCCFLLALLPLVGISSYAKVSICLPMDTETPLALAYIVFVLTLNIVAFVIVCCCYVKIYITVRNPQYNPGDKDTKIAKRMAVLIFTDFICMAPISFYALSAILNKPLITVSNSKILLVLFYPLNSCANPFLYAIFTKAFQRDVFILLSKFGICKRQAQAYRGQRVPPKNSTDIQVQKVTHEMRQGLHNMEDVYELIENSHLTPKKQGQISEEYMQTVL
# In short: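 TSHR-HEK293 cells (800/well) plated 18 h, then compounds with Ro20-1724 and TSH at 1.5 ng/mL final, 30 min at room temperature. cAMP quantified by HTRF (cAMP-d2/anti-cAMP-cryptate, 1 h); 15 concentrations in triplicate.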
# [4] = molecular target: Progesterone receptor (Homo sapiens) (UniProt P06401); experiment: qHTS assay to identify small molecule agonists of the progesterone receptor (PR) signaling pathway (AID 1346784; calls by dose curve; also: nearly all actives have a fitted effect of over 30% in size; also: potency is read from the fitted curve at half-maximal effect; as to activation: % is scaled to controls: 0 for no effect and ±100 for the full control effect); conditions: PR-UAS-bla HEK293T, beta-lactamase FRET ratio, 16 h; activation: at 92.4 µM (top of the series) unless noted
# UniProt P06401, sequence (P06401 whole entry, looked up): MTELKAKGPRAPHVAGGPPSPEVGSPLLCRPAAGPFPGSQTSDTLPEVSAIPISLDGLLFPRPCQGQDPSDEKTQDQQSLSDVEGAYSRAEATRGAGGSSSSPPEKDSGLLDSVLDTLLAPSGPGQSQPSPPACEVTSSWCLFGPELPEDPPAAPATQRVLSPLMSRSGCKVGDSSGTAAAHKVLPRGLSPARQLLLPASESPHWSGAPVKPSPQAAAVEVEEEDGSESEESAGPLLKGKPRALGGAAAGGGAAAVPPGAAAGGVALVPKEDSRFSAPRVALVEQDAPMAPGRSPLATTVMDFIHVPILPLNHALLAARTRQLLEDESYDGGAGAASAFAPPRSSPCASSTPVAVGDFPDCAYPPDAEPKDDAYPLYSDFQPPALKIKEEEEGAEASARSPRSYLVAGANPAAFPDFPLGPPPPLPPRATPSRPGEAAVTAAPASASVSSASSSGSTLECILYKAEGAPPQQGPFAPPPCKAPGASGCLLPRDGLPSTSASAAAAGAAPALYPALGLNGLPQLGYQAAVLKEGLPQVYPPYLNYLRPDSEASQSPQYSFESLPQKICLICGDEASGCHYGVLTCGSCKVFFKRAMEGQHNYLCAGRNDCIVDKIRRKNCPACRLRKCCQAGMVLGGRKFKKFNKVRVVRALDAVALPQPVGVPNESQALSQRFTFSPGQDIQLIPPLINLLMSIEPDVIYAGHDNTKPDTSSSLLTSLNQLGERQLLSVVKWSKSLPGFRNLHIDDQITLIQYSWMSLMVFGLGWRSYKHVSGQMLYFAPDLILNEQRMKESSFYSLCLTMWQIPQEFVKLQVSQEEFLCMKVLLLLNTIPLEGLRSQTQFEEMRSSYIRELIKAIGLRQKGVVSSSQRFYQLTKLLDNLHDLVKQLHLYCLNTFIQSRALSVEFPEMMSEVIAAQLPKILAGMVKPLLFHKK
# In short: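 PR-UAS-bla HEK 293T cells carrying a UAS-driven beta-lactamase reporter were seeded in medium with 2% charcoal-stripped FBS, preincubated 6 hr at 37C, then exposed to compounds in DMSO for 16 hr; agonism was read by LiveBLAzer B/G FRET fluorescence.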
# [5] = qHTS assay to identify small molecule antagonists of the estrogen receptor beta (ER-beta) signaling pathway - cell viability counter screen (AID 1259382); also: nearly all actives have a fitted effect of over 55% in size; also: potency is read from the fitted curve at half-maximal effect
# In short: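 ER-beta-UAS-bla HEK293T cells in 2% charcoal-stripped FBS medium, treated with compound plus 1 nM 17-beta-estradiol for 16 h at 37C. Viability read by CellTiter-Glo luminescence after 30 min at room temperature in the same wells.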
# [6] = qHTS assay to identify small molecule agonists of the estrogen receptor alpha (ER-alpha) signaling pathway in the presence of an antagonist - cell viability counter screen (AID 1259386);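 also: potency is read from the fitted curve at half-maximal effect; cells exposed to compounds for 22 h at 37 °C before the viability read; nearly all actives have a fitted effect of over 30% in size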
# In short: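 Cell viability in VM7Luc4E2 cells (endogenous full-length ER-alpha) measured by CellTiter-Fluor fluorescence in the same wells as the luciferase screen. Cells pre-cultured 5 days in charcoal-stripped serum, then treated 22 h with compounds at 15 concentrations plus 10.0nM ICI-182,780.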
# [7] = molecular target: Progesterone receptor (Homo sapiens) (UniProt P06401); experiment: qHTS assay to identify small molecule antagonists of the progesterone receptor (PR) signaling pathway (AID 1346795; active = well fitted inhibition curve with a large enough effect in the signal ratio in the repeat runs, not every such curve was filed as active; inconclusive = weak or mixed curves; the % refers to the signal ratio; also: potency is read from the fitted curve at half-maximal effect; as to activity change, negative = inhibition: % is scaled to controls: 0 for no effect and ±100 for the full control effect); conditions: PR-UAS-bla HEK293T, beta-lactamase FRET ratio, 16 h; activity change, negative = inhibition: at 92.4 µM (top of the series) unless noted
# In short: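 PR-UAS-bla HEK293T cells carrying a UAS-driven beta-lactamase reporter were plated in medium with 2% charcoal-stripped FBS and rested 6 hr at 37C. Compounds were added with 1 nM R5020 (final) for 16 hr, then FRET substrate loaded 2 hr at room temperature.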
# [8] = qHTS assay to identify small molecule antagonists of the TGF-beta/Smad signaling pathway (AID 1346924; active = well fitted inhibition curve with a large enough effect in the signal ratio in the repeat runs, not every such curve was filed as active; inconclusive = weak or mixed curves; the % refers to the signal ratio; also: potency is read from the fitted curve at half-maximal effect); conditions: SBE-bla HEK293T, TGF-beta/Smad reporter, beta-lactamase ratio; activity, negative = inhibition: at 76.8 µM (top of the series) unless noted
# In short: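 SBE-bla HEK 293T cells were plated overnight, then received compound in DMSO plus TGF-beta1 (added as a 0.25 ng/mL solution) and were incubated 5 h at 37 C. Beta-lactamase reporter activity was read after 2 h at room temperature with LiveBLAzer B/G FRET substrate (ex 405, em 460/530 nm).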
# [9] = qHTS assay to identify small molecule antagonists of the progesterone receptor (PR) signaling pathway - cell viability counter screen (AID 1346798); also: potency is read from the fitted curve at half-maximal effect; nearly all actives have a fitted effect of over 50% in size
# In short: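 PR-UAS-bla HEK293T cells in medium with 2% charcoal-stripped FBS were treated with compounds plus R5020 for 16 hr at 37C. Cell viability was then read by CellTiter-Glo luminescence after 30 min at room temperature in the same wells.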
# [10] = qHTS assay to identify small molecule antagonists of the TGF-beta/Smad signaling pathway - cell viability counter screen (AID 1346824); also: % is scaled to controls: 0 for no effect and ±100 for the full control effect; nearly all actives have a fitted effect of over 50% in size
# In short: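 SBE-bla HEK 293T cells, incubated overnight, then compound plus 0.25 ng/mL TGF-beta1 (stock added) for 5 hr at 37 C. Viability was read in the same wells by CellTiter-Glo luminescence after 30 min at room temperature.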
# [11] = qHTS assay to identify small molecule agonists of the progesterone receptor (PR) signaling pathway - cell viability counter screen (AID 1346799; calls by dose curve; also: potency is read from the fitted curve at half-maximal effect; nearly all actives have a fitted effect of over 45% in size)
# In short: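 PR-UAS-bla HEK293T cells, 3,000 per well in medium with 2% charcoal-stripped FBS, were preincubated 6 hr at 37C, then exposed to compounds for 16 hr; viability was read as CellTiter-Glo luminescence after 30 min at room temperature.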
# [12] = qHTS assay to identify small molecule agonists of the TGF-beta/Smad signaling pathway - cell viability counter screen (AID 1346829); also: potency is read from the fitted curve at half-maximal effect; nearly all actives have a fitted effect of over 45% in size
# In short: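 Cytotoxicity counter screen: CellTiter-Glo luminescence (30 min, room temperature) measured in the SBE-bla HEK 293T reporter wells after 5 hr compound treatment at 37 C and the 2 hr substrate step.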
# Tags tell the direction and shape of the fitted curve or compound fluorescence and quenching.
structure (smiles),measurement,setting,value
CC(=O)Nc1cc(S(=O)(=O)O)cc2cc(S(=O)(=O)O)c(N=Nc3ccccc3)c(O)c12,Potency,[1],inactive
same,cAMP activity change,[2],inconclusive: -2.34%
same,Potency,[3],"inconclusive: 68.6 µM [falling, single point]"
same,Potency,[4],"inconclusive: 1.54 µM [rising, partial curve]"
CCCCCCc1ccc(O)cc1O,Potency,[1],"inconclusive: 16.8 µM [cytotoxic, full curve]"
same,Potency,[5],"active: 48.7 µM and inconclusive: 61.1 µM [cytotoxic, partial curve, poor fit]"
same,Potency,[6],"inconclusive: 61.3 µM [cytotoxic, partial curve, poor fit]"
same,Potency,[7],active: 27.4 µM and active: 27.3 µM and active: 23.7 µM
same,"activity, negative = inhibition",[8],inconclusive: -5% and inconclusive: -7.33%
C=COCC(C)C,Potency,[1],inactive
same,Potency,[3],"inconclusive: 75.1 µM [falling, single point]"
CN(c1nccc(=O)[nH]1)C1CCN(c2nc3ccccc3n2Cc2ccc(F)cc2)CC1,Potency,[1],"inconclusive: 23.7 µM [cytotoxic, partial curve]"
same,Potency,[3],inactive
same,Potency,[9],"inconclusive: 29.8 µM [rising, single point]"
same,Potency,[8],"inconclusive: 9.52 µM [rising, full curve]"
C[C@]12CC[C@@H]3c4ccc(O)cc4C[C@@H](CCCCCCCCCS(=O)CCCC(F)(F)C(F)(F)F)[C@H]3[C@@H]1CC[C@@H]2O (stereo not given in full),Potency,[1],active: 9.68 µM and active: 14.3 µM and active: 8.41 µM
same,Potency,[5],"inconclusive: 27.3 µM [cytotoxic, partial curve] and inconclusive: 8.05 µM [cytotoxic, full curve] and inconclusive: 13.3 µM [cytotoxic, full curve, poor fit]"
same,Potency,[9],"inconclusive: 0.903 µM [cytotoxic, single point]"
same,Potency,[10],inactive
O=C1NC(=O)c2ccccc21,Potency,[1],inactive
same,Potency,[5],inactive
same,Potency,[3],"inconclusive: 0.077 µM [falling, full curve, poor fit]"
same,Potency,[7],inactive
CNc1ccc(O)cc1,Potency,[1],active: 30.6 µM
same,Potency,[2],inconclusive: 18.2 µM
same,Potency,[3],"inconclusive: 13.7 µM [falling, full curve]"
same,Potency,[6],active: 61 µM
same,Potency,[4],"inconclusive: 38.5 µM [cytotoxic, partial curve]"
same,Potency,[7],"inconclusive: 68.5 µM [falling, single point]"
same,Potency,[9],"inconclusive: 68.5 µM [cytotoxic, single point]"
same,Potency,[11],"inconclusive: 76.8 µM [cytotoxic, single point]"
same,Potency,[12],"inconclusive: 54.8 µM [cytotoxic, single point]"
CCCCCCOC(=O)c1ccccc1O,Potency,[1],"inconclusive: 61.1 µM [cytotoxic, single point]"
same,Potency,[3],inactive
same,Potency,[4],"inconclusive: 61.1 µM [rising, single point]"
same,Potency,[7],"inconclusive: 43.3 µM [partial curve, poor fit]"
same,Potency,[9],active: 24.3 µM
same,Potency,[11],active: 30.6 µM
Cc1cccc(O)c1N,Potency,[1],"inconclusive: 61.8 µM [cytotoxic, partial curve]"
same,Potency,[5],"inconclusive: 39 µM [cytotoxic, partial curve]"
same,Potency,[6],"inconclusive: 69.3 µM [cytotoxic, single point]"
same,Potency,[7],active: 30.9 µM
same,Potency,[11],"inconclusive: 6.93 µM [rising, full curve]"
Oc1ccc(Cl)c2cccnc12,Potency,[1],"inconclusive: 2.98 µM [cytotoxic, full curve]"
same,Potency,[3],inactive
same,Potency,[7],active: 3.76 µM
same,Potency,[11],"inconclusive: 3.35 µM [cytotoxic, partial curve, poor fit]"
same,"activity, negative = inhibition",[8],inconclusive: 4.28% [at 35.3 µM]
CC(=O)[C@]1(O)Cc2c(O)c3c(c(O)c2[C@@H](O[C@H]2C[C@H](N)[C@H](O)[C@H](C)O2)C1)C(=O)c1ccccc1C3=O,Potency,[1],active: 2.66 µM
same,Potency,[2],inconclusive: 27.6 µM
same,Potency,[3],"inconclusive: 16.8 µM [falling, partial curve]"
same,Potency,[6],active: 18.8 µM
same,Potency,[4],"inconclusive: 1.33 µM [activator, partial curve]"
same,Potency,[7],inconclusive: 3.35 µM
same,Potency,[11],active: 1.33 µM
same,Potency,[12],"inconclusive: 0.338 µM [cytotoxic, partial curve]"
same,"activity, negative = inhibition",[8],inconclusive: 12.5% [at 35.3 µM]
CCN1CCN(c2cc(-c3ccc(F)cc3)c3c(n2)CCCCCC3)CC1,Potency,[1],"inconclusive: 14.6 µM [cytotoxic, partial curve, poor fit]"
same,Potency,[3],"inconclusive: 14.6 µM [falling, partial curve, poor fit]"
same,activation,[4],inactive: -3.65% [at 19 µM]
